This is an account of results in the RNAGym collection of RNA variant scans (doi:10.7554/elife.90254).

B1: OR4K15 (parent)
chain: GUUAACGGUCAUAGGCCAUGGAAACUAGGAGCACCAUUUCGCUGCCAGUGAAGAAAUGAACAAAGAAAAUCUGGGCCAGGCAGGCAUCAAAAGAAAUAGUCUUGCGCUCAACCAGAAAGUCUGUAAUCAUUUUAAGGGUA

The source gives no read counts; variants with many changes may rest on few reads.

The variants in the data set derive from B1. The data set is described as follows: self-cleavage, relative activity (ratio to wild type); higher = more cleavage; in vitro, sequencing; the parent is a self-cleaving ribozyme.
Take A5G U38C U43G A55U A117G: the self-cleavage was found to be 1.58. Next, A5C A33G U49C: 1.29.

For C6U A51G A98C, the self-cleavage came out at 1.61. The value for A5U A33G A78C was 0.21. The value for A5U U12A A59G was 1.3.

Take A5C A92G U102C U127C: the self-cleavage turned out to be 0.36.

With A5C A47U A55G A78G, the self-cleavage was 0.18. On to A5G U37C A116G, for which the self-cleavage is 1.38. The value for A5G U12C A27U A52G U100C U139A was 1.29; that for A5G U26C U43C was 0.67. Next, A5G U72A U100C: 0.77; A5G A78G U132C U139C: 0.29; A5G C77U A140G: 1.22. A5U U37C A111G: the self-cleavage came to 0.01. Regarding A5C C17U U49C A78G U127C U131C, the self-cleavage was 0.22. Turning to A5G C46U A82U A89C U108C, the self-cleavage came to 0.02.

Turning to C6A U19C U100C, the self-cleavage is 1.39.

Turning to A5G G29A U39C A47G U49C, the self-cleavage came out at 1.06. As to A5C A96G U108A, the self-cleavage was determined as 0.02.

As for A5G U43C U102C, the self-cleavage is 1.83. The value for A5G U38C A116G was 0.95; that for A5G U9C A51U G53U was 1.44. Next, A5G U19A A63G: 0.89; A5C A22G U26C A51G U102C A116G U122C A126G: 1.15; A5U C10A A55G A66G U124C: 0.9. Next, A5G A98G A116U: 0.06; A5G A56G A118C U120G: 0.29; C6U A54G U87C U103C: 0.5. With A5G U19C A59G U100C, the self-cleavage turned out to be 0.99. Next, A5U A18U A62U A64G A134U: 0.64; A5U A51G A62G A68U G73U: 0.29. The value for A5G A33C A54G was 1.44. The value for A5G A110U A118G U120C was 0.54. Turning to A5C A55G A62G A67G U102A A117C, the self-cleavage amounted to 0.15.

For the variant C6U A18C A22G, the self-cleavage was 0.9. Next, A5C A27C U39A A64G U97C: 1.14; A5U U100A U108C: 0.01. Turning to C6A U37C A52G A110G U120C, the self-cleavage was 0.02. On to A5G U38A G104A, for which the self-cleavage is 0.13. Regarding A5G A18G A111G A116U, the self-cleavage was 0. On to A5G U87C A98G A114G, for which the self-cleavage was 0.17. The value for A5G A11G A59G was 0.93.

With C6U A67G U130C U132C, the self-cleavage was 0.91. Turning to A5G A27G U57C A62U A116G G123A, the self-cleavage stood at 0.46.

Regarding A5G A60G C61A A63U U127C, the self-cleavage was 1.3.

With A5G A64U A117G, the self-cleavage is 1.51. Next, A5G A94U A114G U122A: 0.44; A5U A51U A126G U133A: 0.72; A5U A117G U127C: 1.72. The value for A5G G21A A23G G28A A60G A78C was 0.51. Next, C6U A18U U38C A52U G74A A98G: 0.17; A5U A63U A67G A110G: 0.38. As for A5U U39C A98U U133C A140G, the self-cleavage stood at 2.35.

Take A5G A60G A95G U122A: the self-cleavage turned out to be 0.54. In the case of A5G A56G A78C U102C A111G, the self-cleavage was found to be 0.02. Next, C6U U130C G136U: 1.13. The value for A5G A118G U132C was 0.71; that for A5G A68G A90U A95G U120A was 2.08. Next, A5G A117G U130C: 0.67; A5G A78G A111G: 0.16. With A5G A11G G20U A111G, the self-cleavage was 0.08. A5G G15U A60G: the self-cleavage was 1.18. Next, A5G A23G A64G A94G U130C: 0.29. Next, A5G A60G A82U U102C C107U: 0.02; A5G A51G A59G G80A A98G U108G A110G A114G U132C: 0; A5U A27G A66G G74U: 0.29. The value for A5G A98C G138A was 0.58; that for A5G A24G U37C A78G A82G was 0.71; that for A5G U19C A22G A33G U87C A111G was 0.08.

In the case of A5G U37C U108A, the self-cleavage was found to be 0.17. Next, A5G A13G U103C G136A: 0.21; A5G C46U A126G: 1.15; A5U A62C A89G A140G: 1.44.

For A5G A55G U72C U124C, the self-cleavage worked out at 0.21. The value for A5G G14U A18U A67G A92G U100A C128U was 0.35. Next, C6A A63U A89G: 1.42; A5U A24G A129G: 0.69; A5G C16U U19C U39A G44A U72C U87C: 0.3. As for A5G A30G A67G U87C U97C A140U, the self-cleavage was determined as 0.95. Next, A5G A36U A47U A86G: 0.29; A5C A23G A59G A62G A91G A94G A96G: 0.35; A5G G28A A68G U102C: 2.31. On to A5G U9A A64G, for which the self-cleavage was determined as 0.56. Consider A5G C32U C46U, for which the self-cleavage was determined as 0.84. As to A5G A82U A96G U100C U131C, the self-cleavage worked out at 0.24. The value for A5U A24G A60G A63U was 0.69; that for C6U G15U A63G A135G was 1.46; that for A5G A18G A33U was 0.61.

As for A5G U12C A13G A33G A47G U131C, the self-cleavage stood at 0.88. Next, A5G A13U U37C A63G A68G U131A: 0.23; C6U U26C A94U A116U: 0.59; A5C C10U A62G A94G U103C: 0.43. For A5G U19C U70C, the self-cleavage was determined as 1.33. The value for A5G A95U A116U was 0.1; that for A5G A30G A95G was 0.91. The value for A5G A59G U127C was 0.67; that for A5G U43A A54G was 1.12; that for A5U A116C U130C was 0.06.

Consider A5G U49C A56G, for which the self-cleavage is 0.99.

Regarding A5G A66G G75A A82U A95G U108C, the self-cleavage came to 0.1. Next, A5G U132G G138A: 0.65.

As to G7A A18G A56G A94G, the self-cleavage came out at 1.47. Next, A5G U72C A94G U139C: 0.07. Next, A5G A22G A114G A126G: 0.24; A5U U9C U72C A116G: 0.13; A5G A24C U57C A129G: 1.73. Turning to A5G A59G A64G A86G, the self-cleavage was 0.5.

As for A5C A47G U131C, the self-cleavage worked out at 1.71. In the case of A5G A52G U57C A67G, the self-cleavage is 1.31.

Turning to A5C U102C U131C U133C, the self-cleavage turned out to be 1.46. Next, A5G A24G A96G: 0.55; A5G U100C A135G: 2.32; A5G A22U A30G U122C: 0.79.

For A5G U9A A13G U100A, the self-cleavage worked out at 1.5. Next, A5C A33G A56G A82U: 0.07. A5U U49G A52G U124C: the self-cleavage turned out to be 1.28. Next, G7A A18G A22G C88A: 0.12; A5G A47C A95G A110G: 0.34. The value for A5G U39C G50U A52G U131C was 0.86; that for A5G A59G G83A was 1.1. Next, A5G U12C U103C: 1.74; A5G G21A A92G: 1.24. For the variant A5U A18G A24U A52G A55C U72A A118G, the self-cleavage was determined as 0.18. The value for A5G A23G A24G U72C was 0.33; that for A5G A23G A110U A111G was 0.05. The value for A5G A118G A129G was 0.43; that for A5U U19C U26G A55G A82C U103C A111G A114G was 0.07; that for A5G U19A U57C was 0.97. For the variant A5G A54G A55U, the self-cleavage turned out to be 1.38. Next, A5G U19C U43A: 1.15; A5G U108A A116G: 0. Next, C6U A13U A55G A96G: 1.12. The value for A5G A96G U97C was 1.06.

For the variant C6U A30G A63G U87C A116G, the self-cleavage stood at 1.52. Next, A5G A89U U127A: 1.34. Turning to A5U U9C A51G A91G A95G U100C, the self-cleavage came out at 2.61. Next, A5G A86U A111G: 0.09; A5G C10U U72A A111U: 0.12. As to C6U A59U U108A A126G U131C A140G, the self-cleavage was found to be 0. The value for A5G U9A A64G A110U was 0.79. Next, A5G A90G A110G: 0.34.

As for A5U U43C A68G, the self-cleavage turned out to be 1.24. Next, A5G A52G A68U A111G: 0.18; A5G U43C A95G G104A: 0.12. In the case of A5C G29A U43A A64U A118G U127C U132C A140G, the self-cleavage is 0.28. The value for A5U U19C U49C A56G A63U A78G A89G A96G was 0.12; that for A5G U103C A118G A126U was 1.73; that for A5G U19A C45U was 0.74. Next, A5G A64U A94G U127C: 0.54; A5G A78U A94G: 0.73; A5G A13G A54G U100C: 1.02. The value for A5G A22U U39A was 1.42; that for A5C U38C A56G A69G U87C U127C was 0.45.

As for A5G A56G U87A U132C, the self-cleavage turned out to be 0.51. The value for A5G C40A A92G was 1.78; that for A5G A23G A51G A69G A94G U100C U130C was 0.89; that for A5U A60G A63U was 1.31.

Take A5C A62G U131C: the self-cleavage came out at 1.52.

Regarding A5G A36G A51U A118G, the self-cleavage amounted to 0.44. A5G U38C A111G: the self-cleavage is 0.04.

For A5G A23G A36G U120A, the self-cleavage turned out to be 1.3.

On to A5G U37C A55G C76U G137U, for which the self-cleavage is 0.25. Next, A5U A22G A30G U38C A78G: 0.37; C6U G80A G123A: 0.17.

Take A5G U38C U39C A60G G79U G119A: the self-cleavage came to 0.13. The value for A5G A22G G53A G58A U103C was 0.71; that for A5G A60G U87C was 0.59.
